“And” between values parts separate entries of the source, which are not always exact repeats. Equal values may be shown once. Hit rate of the full screen: of about 400,000 compounds, about 2,200 (0.55%) were called active. Another 1% or so got no clear call; they are omitted. Calls come from the whole dose curve; as a rule, active = well fitted inhibition curve with a large enough effect; inconclusive = small, poorly fitted or top-dose-only effect, or another doubt; inactive = no such curve, though single readings can be large or run the other way. The list shows a part of the results, in another mix than the full data. Some structures have more than one record in an assay (separate samples or runs), and their calls can disagree.
% is set by controls: 0 for no effect and ±100 for the full control effect; potency is the fitted concentration of half-maximal effect.

Sequence of UniProt Q9UBT6 (Q9UBT6 whole entry, looked up): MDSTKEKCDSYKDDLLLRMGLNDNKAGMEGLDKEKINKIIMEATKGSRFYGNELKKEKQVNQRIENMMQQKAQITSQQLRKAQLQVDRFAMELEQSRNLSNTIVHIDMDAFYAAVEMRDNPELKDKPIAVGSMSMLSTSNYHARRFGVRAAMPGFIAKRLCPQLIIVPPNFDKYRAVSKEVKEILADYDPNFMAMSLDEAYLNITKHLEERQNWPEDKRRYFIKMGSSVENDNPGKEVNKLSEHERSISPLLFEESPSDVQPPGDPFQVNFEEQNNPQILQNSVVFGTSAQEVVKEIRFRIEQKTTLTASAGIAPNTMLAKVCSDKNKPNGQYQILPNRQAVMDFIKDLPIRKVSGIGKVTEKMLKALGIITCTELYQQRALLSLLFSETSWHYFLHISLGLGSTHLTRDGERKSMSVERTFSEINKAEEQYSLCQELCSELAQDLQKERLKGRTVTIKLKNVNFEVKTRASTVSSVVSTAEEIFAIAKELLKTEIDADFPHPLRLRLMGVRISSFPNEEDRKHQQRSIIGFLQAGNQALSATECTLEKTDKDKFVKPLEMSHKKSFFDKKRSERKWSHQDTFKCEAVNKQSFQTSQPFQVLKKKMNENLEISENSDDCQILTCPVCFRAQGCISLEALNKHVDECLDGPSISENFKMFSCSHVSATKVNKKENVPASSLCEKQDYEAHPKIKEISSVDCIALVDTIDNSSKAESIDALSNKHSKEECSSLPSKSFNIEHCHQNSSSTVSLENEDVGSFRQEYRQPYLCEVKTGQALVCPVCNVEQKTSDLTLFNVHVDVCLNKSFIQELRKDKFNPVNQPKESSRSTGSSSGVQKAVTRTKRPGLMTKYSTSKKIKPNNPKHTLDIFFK

The assay addresses DNA polymerase kappa (Homo sapiens) (UniProt Q9UBT6). The experiment in a line: qHTS for Inhibitors of Polymerase Kappa. The note with it: purified Pol kappa, fluorescent DNA synthesis assay, 10 min; series mostly up to 107 µM; activity, negative = inhibition: at the top concentration. In outline:
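Activity was followed as the change in fluorescence between reads at 0 and 10 min after starting the reaction with 50 nM substrate. Beforehand, 10 nM polymerase had been preincubated with compound for 15 min at room temperature.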
For orientation: Quantitative high-throughput screening tests each substance at several concentrations.
With `Cc1ccc(NC(=O)N2CCN(c3nnc(C)c4c(C)n(-c5ccccc5)nc34)CC2)c(Cl)c1`, the “activity, negative = inhibition” value was inactive: 24.5%.

For `COc1ccc([C@@H]2CC(=O)c3c(O)cc(O[C@H]4O[C@@H](CO[C@H]5O[C@@H](C)[C@@H](O)[C@@H](O)[C@@H]5O)[C@@H](O)[C@@H](O)[C@@H]4O)cc3O2)cc1O`, the activity, negative = inhibition is inactive: -1.59% [at 19.4 µM].

As for `COc1cc(/C=C2\C=Cc3ccccc32)ccc1N(C)C`, the “activity, negative = inhibition” value is inactive: 1.16%.

On to `CCC1CCCCC1`, for which the “activity, negative = inhibition” value was inactive: 14.5% [at 60.1 µM].

Regarding `COc1ccc2c(c1)c(CC(=O)O)c(C)n2C(=O)c1ccc(Cl)cc1`, the Potency entry is “inactive”.

Take `Cc1ccc(CNC(=O)CCc2c(C)nn(-c3ccc(N4CCCCC4)nn3)c2C)cc1`: the “activity, negative = inhibition” value was inactive: 29.6%.

Regarding `CC1(C)CCCN(C(=O)c2coc(=O)c(Br)c2)C1`, the Potency was active: 14.1 µM.

As for `O=C1OCCN1C(=O)[C@H]1[C@H](c2ccc(F)cc2)C(c2ccc(F)cc2)=NN1c1ccccc1`, the “activity, negative = inhibition” value is inactive: -9.86%.

`CC(=O)C[C@@H](O)CC(=O)[C@@H]1OC(=O)CCCCCc2ccccc21`: the “activity, negative = inhibition” value is inactive: -1.83%.

On to `O=C(O)c1cc(N=Nc2ccc(-c3ccc(N=Nc4ccc(O)c(C(=O)O)c4)cc3)cc2)ccc1O`, for which the Potency is active: 5.97 µM.

In the case of `Cc1cccc(C2=NN(c3ccccc3)[C@H](CO)[C@H]2c2ccc(Cl)cc2)c1`, the “activity, negative = inhibition” value is inactive: -0.759%.

With `O=C(CCc1ccc(O)cc1)c1c(O)cc(O)cc1O`, the Potency entry is “inactive”.

Turning to `CSCC[C@H](NC(=O)[C@H](CC(C)C)NC(=O)CNC(=O)[C@H](Cc1ccc(O)cc1)NC(=O)[C@H](Cc1ccccc1)NC(=O)[C@H](CCC(N)=O)NC(=O)[C@H](CCC(N)=O)NC(=O)[C@@H]1CCCN1C(=O)[C@H](CCCCN)NC(=O)[C@@H]1CCCN1C(=O)[C@@H](N)CCCN=C(N)N)C(N)=O`, the “activity, negative = inhibition” value is inactive: 12.7% [at 60.1 µM].

For the compound `O=C(Nc1ccc2nc(-c3ccco3)c(-c3ccco3)nc2c1)N1CCN(c2ccccn2)CC1`, the Potency is active: 28.2 µM.

As for `CNC[C@H](O)c1ccc(O)c(O)c1`, the Potency is active: 2 µM and active: 2.67 µM and active: 7.08 µM.

With `CN1CCN(CCCN2c3ccccc3Sc3ccc(C(F)(F)F)cc32)CC1`, the Potency entry is “inactive”.

Turning to `CCCCCCCCCCCCCCC[C@H](O)[C@H](N)CO`, the “activity, negative = inhibition” value was inactive: -3.46%.

As for `CCOc1ccccc1NC(=O)CCn1nc(C)c(S(=O)(=O)N2CCCCC2)c1C`, the “activity, negative = inhibition” value is inactive: 0%.

For `C[C@@H]1C(c2cccc(Cl)c2)=NN(c2ccccc2)[C@H]1C(=O)N1CCOC1=O`, the “activity, negative = inhibition” value was inactive: 4.3%.

Take `CCCCC(=O)OC1CCC2C3CCc4cc(O)ccc4C3CCC12C` (configuration not stated): the “activity, negative = inhibition” value is inactive: -7.71%.

In the case of `Oc1ccc(/C=C/c2cc(O)cc(O)c2)cc1`, the Potency result was “inactive”.

In the case of `O=C(O)c1cccc(N2C(=O)/C(=C/c3ccc(SCc4ccc(Cl)cc4)o3)SC2=S)c1`, the Potency was active: 79.4 µM.

As to `COc1ccc(-c2nnc(SCc3cccc(Cl)c3)o2)cc1`, the “activity, negative = inhibition” value was inactive: 24%.

As for `COc1ccc2[nH]c(=O)c(CN(Cc3nnnn3Cc3ccco3)C3CCCCC3)cc2c1`, the Potency is active: 35.5 µM.

For `COC(=O)[C@@H]1[C@@H]2C[C@H]3c4[nH]c5ccccc5c4CCN3C[C@@H]2CC[C@@H]1O`, the Potency entry was “inactive”.

`O=C(O)C(S)[C@@H](S)C(=O)O` (some centres not stated): the Potency was active: 22.4 µM.

With `CCCc1c(-c2ccc(O)cc2)nn(-c2ccc(O)cc2)c1-c1ccc(O)cc1`, the Potency result was “inactive”.

`OCCOCCN1CCN(Cc2cccc(Oc3ccccc3)c2)CC1`: the “activity, negative = inhibition” value was inactive: 13.9% [at 60.1 µM].

As to `O=c1c(-c2ccc(O)cc2)coc2cc(OC3OC(CO)C(O)C(O)C3O)ccc12` (configuration not stated), the “activity, negative = inhibition” value was inactive: 3.82%.

For `COc1cc(OC)c2c(O)c3c(c(-c4c5c(c(O)c6c(OC)cc(OC)cc46)CO[C@@H](C)[C@H]5O)c2c1)[C@H](O)[C@H](C)OC3`, the Potency is active: 39.8 µM.

With `O=C(COC(=O)C1CC(=O)N(Cc2ccco2)C1)c1ccc(OC(=O)c2ccco2)cc1` (configuration not stated), the Potency is active: 31.6 µM.

`O=C(O)c1cc(C(=O)O)cc(N2C(=O)CSC2=S)c1`: the Potency is active: 89.1 µM.

For `Cc1cccc(C2=NN(c3ccccc3)[C@@H](C(=O)N3CCOC3=O)[C@@H]2C)c1`, the “activity, negative = inhibition” value was inactive: -8.86%.

Regarding `CCOC(=O)C1Nc2ccc(C(=O)O)cc2C2C=CCC12` (configuration not stated), the Potency is active: 10 µM.

With `O=C(O)CSc1c2ccccc2cc2ccccc12`, the “activity, negative = inhibition” value is inactive: -10.6%.

Take `Cc1nc2ccc(-c3nc4ccc(N)cc4[nH]3)cc2[nH]1`: the Potency is active: 50.1 µM.

With `CC1CCN(C(=O)Nc2ccc3nc(-c4ccco4)c(-c4ccco4)nc3c2)CC1`, the Potency is active: 8.91 µM.

Take `CCOC(=O)c1cc2c(=O)n3ccccc3nc2n(Cc2ccco2)c1=NC(=O)c1ccc(OC)cc1`: the “activity, negative = inhibition” value was inactive: -0.542%.

In the case of `CCCCC1=C(C(=O)OCC)C(C(=O)OCC)Oc2ccccc21` (configuration not stated), the “activity, negative = inhibition” value is inactive: 4.62%.

For the compound `CC(C)CN1CCC(=O)N(CCSc2ccccc2)CC1`, the “activity, negative = inhibition” value was inactive: -13.4%.

Turning to `C[C@@](N)(Cc1ccc(O)c(O)c1)C(=O)O`, the activity, negative = inhibition is inactive: -13.8% [at 12 µM].

With `Cc1ccccc1/C=C\c1nc2ccccc2c(=O)[nH]1`, the “activity, negative = inhibition” value is inactive: -3.77%.

The values above are taken from PubChem BioAssay AID588579 (National Center for Advancing Translational Sciences (NCATS), 2011).
